Test results from PMC4976663.
Results are given in words; binding and its absence hold for the method and conditions named. In cells and extracts the contact can be indirect. Some binding calls cover weakened binding; strength is not graded here. For some assays here: Where a sequence is shown, tags or fusion partners need not be part of it.

Chains of the proteins cited; added tags and fusions are not shown. Residues count along the entry.
UniProt P41968: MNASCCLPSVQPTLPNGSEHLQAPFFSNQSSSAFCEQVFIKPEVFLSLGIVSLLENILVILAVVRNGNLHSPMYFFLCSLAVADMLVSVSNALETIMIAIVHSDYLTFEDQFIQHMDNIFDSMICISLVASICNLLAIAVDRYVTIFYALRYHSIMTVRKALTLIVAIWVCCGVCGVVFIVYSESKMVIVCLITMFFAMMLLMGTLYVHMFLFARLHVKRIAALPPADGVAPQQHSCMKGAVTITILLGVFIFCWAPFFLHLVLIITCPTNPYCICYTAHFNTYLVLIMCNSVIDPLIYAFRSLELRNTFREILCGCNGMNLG
UniProt P08483: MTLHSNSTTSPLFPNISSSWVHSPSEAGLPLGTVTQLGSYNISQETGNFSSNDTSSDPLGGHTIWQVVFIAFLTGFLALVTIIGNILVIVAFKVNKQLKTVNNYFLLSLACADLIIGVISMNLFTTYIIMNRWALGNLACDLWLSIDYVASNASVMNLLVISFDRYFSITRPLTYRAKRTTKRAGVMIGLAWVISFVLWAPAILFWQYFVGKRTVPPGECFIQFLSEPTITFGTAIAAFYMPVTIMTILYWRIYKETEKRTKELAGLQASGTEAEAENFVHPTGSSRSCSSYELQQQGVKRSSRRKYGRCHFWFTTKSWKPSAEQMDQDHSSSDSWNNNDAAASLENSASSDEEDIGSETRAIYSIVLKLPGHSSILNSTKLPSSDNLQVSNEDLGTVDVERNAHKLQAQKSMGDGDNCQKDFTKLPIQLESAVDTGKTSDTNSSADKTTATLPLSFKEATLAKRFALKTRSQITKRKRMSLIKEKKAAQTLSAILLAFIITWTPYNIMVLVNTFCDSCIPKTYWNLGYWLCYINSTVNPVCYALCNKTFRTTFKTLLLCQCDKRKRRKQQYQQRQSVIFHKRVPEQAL
UniProt P30731, residues 18-423: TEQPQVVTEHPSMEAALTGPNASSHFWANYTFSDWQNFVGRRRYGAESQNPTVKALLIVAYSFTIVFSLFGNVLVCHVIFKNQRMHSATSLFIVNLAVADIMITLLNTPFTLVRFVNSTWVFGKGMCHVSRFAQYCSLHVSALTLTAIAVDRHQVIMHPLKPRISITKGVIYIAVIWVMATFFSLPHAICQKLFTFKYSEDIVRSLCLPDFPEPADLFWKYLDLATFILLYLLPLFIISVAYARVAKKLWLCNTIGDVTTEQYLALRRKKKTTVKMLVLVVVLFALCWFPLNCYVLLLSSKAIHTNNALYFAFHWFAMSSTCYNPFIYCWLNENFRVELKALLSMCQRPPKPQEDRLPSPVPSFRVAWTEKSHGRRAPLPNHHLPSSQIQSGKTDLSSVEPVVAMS
UniProt Q92847: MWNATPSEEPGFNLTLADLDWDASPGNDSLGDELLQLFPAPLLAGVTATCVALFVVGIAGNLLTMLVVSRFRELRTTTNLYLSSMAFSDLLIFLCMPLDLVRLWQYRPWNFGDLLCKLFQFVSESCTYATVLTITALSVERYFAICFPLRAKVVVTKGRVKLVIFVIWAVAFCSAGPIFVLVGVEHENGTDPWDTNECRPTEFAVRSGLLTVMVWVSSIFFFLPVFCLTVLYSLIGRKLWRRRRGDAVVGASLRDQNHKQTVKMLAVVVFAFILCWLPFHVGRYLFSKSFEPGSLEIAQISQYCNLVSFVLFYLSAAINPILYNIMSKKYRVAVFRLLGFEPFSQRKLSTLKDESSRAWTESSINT

How the values were obtained:
Experiment in all cases: split reporter; YFP-BiFc with full-length genes in transfected HEK293 cells; YFP-fluorescent cells counted by flow cytometry (FACS Canto II), 50,000 cells per sample; values of both tag orientations (YFP1/YFP2) combined
[1] = target: melanocortin 3 receptor (MC3R), human, full length, fused to a YFP fragment (human) (UniProt P41968)
[2] = target: rat cholinergic receptor, muscarinic 3 (rCHRM3), fused to a YFP fragment (rat) (UniProt P08483)
[3] = target: G protein-coupled receptor 83 (GPR83) (mouse) (UniProt P30731)
[4] = target: ring finger protein 11 (RNF11), murine, full length, fused to a YFP fragment (mouse) (UniProt Q9QYK7)

| binding [1] | binding [2] | binding [3] | binding [4] | Molecule |
| --- | --- | --- | --- | --- |
| binds | no binding |  |  | growth hormone secretagogues receptor (GHSR), human, full length, fused to a YFP fragment (from UniProt Q92847 1-366) |
|  | no binding | binds | binds | ring finger protein 11 (RNF11), murine, full length, fused to a YFP fragment (protein, UniProt Q9QYK7 1-154) MGNCLKSPTSDDISLLHESQSDRASFGEGTEPDQEPPPPYQEQVPVPIYHPTPSQTRLATQLTEEEQIRIAQRIGLIQHLPKGVYDPGRDGSEKKIRECVICMMDFVYGDPIRFLPCMHIYHLDCIDDWLMRSFTCPSCMEPVDAALLSSYETN |
